Test results: a collection of fitness landscapes (doi:10.1016/j.celrep.2020.107928)
Over roughly 81,000 sequences, “one-hybrid fitness for binding parS DNA” has its median near -0.17; the highest 2% begin near 0.51. This is one part of the list.

B1: Caulobacter ParB omega fusion; a variant is named by its letters at X, in order, B8GW30 (parent)
chain: MESVVVGEPGMSEGRRGLGRGLSALLGEVDAAPAQAPGEQLGGSREAPIEILQRNPDQPRRTFREEDLEDLSNSIREKGVLQPILVRPSPDTAGEYQIVAGERAWRAAQRAGLKTVPIMVRELDDLAVLEIGIIENVQRADLNVLEEALSYKVLMEKFERTQENIAQTIGKSXSHVANXMRLLXLPDEVQSYLVSGELTAXHARAIAAAADPVALAKQIIEGGLSVRETEALARKAPNLSAGKSKGGRPPRVKDTDTQALESDLSSVLGLDVSIDHRGSTGTLTITYATLEQLDDLCNRLTRGI

Variants of: B1
Assay: one-hybrid fitness for binding parS DNA (scaled: cognate 1, non-cognate 0); higher = stronger binding
Conditions: with parS DNA site
Summary of the method: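 On M9-minus-histidine containing 0.1 mM IPTG and 5 mM 3-AT, E. coli USO cells with a HIS3 reporter, site 19 bp from the promoter, grew 48 hours at 37°C to select Caulobacter ParB libraries randomised at four specificity codons. Plasmids from before and after were Illumina-sequenced, with three replicate libraries pooled and variants under 10 reads left out. Fitness is the log change in variant-to-wild-type read ratio, rescaled against cognate and non-cognate.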

| Variant | one-hybrid fitness for binding parS DNA |
| --- | --- |
| STGN | ≤ 0.2 |
| CCSV | ≤ 0.2 |
| KKAS | ≤ 0.2 |
| RPMF | ≤ 0.2 |
| IFLH | ≤ 0.2 |
| QLKC | ≤ 0.2 |
| CAHI | ≤ 0.2 |
| FQHR | ≤ 0.2 |
| SWML | ≤ 0.2 |
| QQAA | ≤ 0.2 |
| GSIK | ≤ 0.2 |
| YKTQ | ≤ 0.2 |
| QQSS | ≤ 0.2 |
| HTQR | ≤ 0.2 |
| QIDN | ≤ 0.2 |
| DCRV | ≤ 0.2 |
| TKEL | ≤ 0.2 |
| YEAM | ≤ 0.2 |
| PELA | ≤ 0.2 |
| LLCY | ≤ 0.2 |
| ALNC | ≤ 0.2 |
| AHIG | ≤ 0.2 |
| NNPS | ≤ 0.2 |
| PMKG | ≤ 0.2 |
| HDLQ | ≤ 0.2 |
| RVSL | ≤ 0.2 |

| Variant | one-hybrid fitness for binding parS DNA |
| --- | --- |
| AQSY | ≤ 0.2 |
| PQPN | ≤ 0.2 |
| INAR | ≤ 0.2 |
| YPTV | ≤ 0.2 |
| RRNG | 0.704 |
| PEKG | ≤ 0.2 |
| SAAG | ≤ 0.2 |
| IMKC | ≤ 0.2 |
| TYRY | ≤ 0.2 |
| RAYN | 0.445 |
| VVSE | ≤ 0.2 |
| QVMG | ≤ 0.2 |
| IGPV | ≤ 0.2 |
| RTGD | ≤ 0.2 |
| AVTR | ≤ 0.2 |
| CHIS | ≤ 0.2 |
| CQPT | ≤ 0.2 |
| RWPE | ≤ 0.2 |
| RAPF | ≤ 0.2 |
| SSAR | ≤ 0.2 |
| VGFS | ≤ 0.2 |
| NSDP | ≤ 0.2 |
| CSYW | ≤ 0.2 |
| RHHM | 0.266 |
| PHNG | ≤ 0.2 |
| LCVR | ≤ 0.2 |

| Variant | one-hybrid fitness for binding parS DNA |
| --- | --- |
| LDPT | ≤ 0.2 |
| YVGL | ≤ 0.2 |
| TQQL | ≤ 0.2 |
| LWPS | ≤ 0.2 |
| RRHD | ≤ 0.2 |
| NIQI | ≤ 0.2 |
| DDTI | ≤ 0.2 |
| HKDT | ≤ 0.2 |
| LESH | ≤ 0.2 |
| LVCA | ≤ 0.2 |
| HWAD | ≤ 0.2 |
| WNLN | ≤ 0.2 |
| YKNR | ≤ 0.2 |
| EAHR | ≤ 0.2 |
| KRVS | ≤ 0.2 |
| GRKY | ≤ 0.2 |
| GQGG | ≤ 0.2 |
| QHMK | ≤ 0.2 |
| WINT | ≤ 0.2 |
| RTST | 0.91 |
| LAFL | ≤ 0.2 |
| TVEY | ≤ 0.2 |
| RTEY | 0.414 |
| DNQT | ≤ 0.2 |
| ANCR | ≤ 0.2 |
| RNIR | ≤ 0.2 |

| Variant | one-hybrid fitness for binding parS DNA |
| --- | --- |
| ACNA | 0.304 |
| RGEL | ≤ 0.2 |
| FLTV | ≤ 0.2 |
| NDQG | ≤ 0.2 |
| EGDG | ≤ 0.2 |
| TPTA | ≤ 0.2 |
| QEPS | ≤ 0.2 |
| WVQT | ≤ 0.2 |
| QAGW | ≤ 0.2 |
| TQDT | ≤ 0.2 |
| IGAI | ≤ 0.2 |
| GHYR | ≤ 0.2 |
| TARS | ≤ 0.2 |
| FGKT | ≤ 0.2 |
| TEIL | ≤ 0.2 |
| LGPL | ≤ 0.2 |
| MIQN | ≤ 0.2 |
| ALRC | ≤ 0.2 |
| AFQL | ≤ 0.2 |
| QSRM | ≤ 0.2 |
| FSHY | ≤ 0.2 |
| AAMF | ≤ 0.2 |
| DVSR | ≤ 0.2 |
| LIPP | ≤ 0.2 |
| SINM | ≤ 0.2 |
| PRSA | ≤ 0.2 |

| Variant | one-hybrid fitness for binding parS DNA |
| --- | --- |
| AITK | ≤ 0.2 |
| RYEW | ≤ 0.2 |
| SCGV | ≤ 0.2 |
| WPWR | ≤ 0.2 |
| RCST | 0.923 |
| VQLP | ≤ 0.2 |
| SEDS | ≤ 0.2 |
| PYGE | ≤ 0.2 |
| YCCG | ≤ 0.2 |
| QKFA | ≤ 0.2 |
| ARWR | ≤ 0.2 |
| RMGR | ≤ 0.2 |
| PKHD | ≤ 0.2 |
| LTNG | ≤ 0.2 |
| MHLC | ≤ 0.2 |
| TIPI | ≤ 0.2 |
| RIEI | ≤ 0.2 |
| EMLG | ≤ 0.2 |
| IYFF | ≤ 0.2 |
| DFYR | ≤ 0.2 |
| PIES | ≤ 0.2 |
| TPKG | ≤ 0.2 |
| QTDM | ≤ 0.2 |
| ASRD | ≤ 0.2 |
| PSWQ | ≤ 0.2 |
| VQIC | ≤ 0.2 |

| Variant | one-hybrid fitness for binding parS DNA |
| --- | --- |
| GENW | ≤ 0.2 |
| CNLG | ≤ 0.2 |
| KEVK | ≤ 0.2 |
| HKYD | ≤ 0.2 |
| QRPI | ≤ 0.2 |
| QMAI | ≤ 0.2 |
| EYYG | ≤ 0.2 |
| EPPR | ≤ 0.2 |
| TTHA | ≤ 0.2 |
| SIFC | ≤ 0.2 |
| WWNK | ≤ 0.2 |
| YCYR | ≤ 0.2 |
| PTTP | ≤ 0.2 |
| THTD | ≤ 0.2 |
| SSSN | ≤ 0.2 |
| RQNH | 0.329 |
| PDHA | ≤ 0.2 |
| IDLT | ≤ 0.2 |
| CIQD | ≤ 0.2 |
| DNMS | ≤ 0.2 |
| WTLP | ≤ 0.2 |
| TNVD | ≤ 0.2 |
| AQIF | ≤ 0.2 |
